We go through 108 compounds from PubChem BioAssay AID488969 (Vanderbilt High Throughput Screening Facility, 2010).

In all, about 110,000 compounds were measured (“z-score”: median about -0.1, highest 2% from about 2 on). The list shows a part of the results. Calls of active or inactive are those of the source.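 How the source made its calls: active means z-score in the third read window above 3 or below -3; inactive means the rest.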

This experiment deals with Metabotropic glutamate receptor 8 (Rattus norvegicus) (UniProt P70579). The experiment can be described thus: mGluR8 Gi/Go-coupled signaling modulation – cell-based, rat, thallium flux, HTS, primary screen (AID 488969). The settings on record: HEK293 rat mGluR8, GIRK (G protein-gated inwardly rectifying potassium channel) thallium flux, FluoZin2; at 10 µM; stronger effect = higher value; submaximal glutamate (EC20) added with thallium.
Sequence of UniProt P70579 (P70579 whole entry, looked up): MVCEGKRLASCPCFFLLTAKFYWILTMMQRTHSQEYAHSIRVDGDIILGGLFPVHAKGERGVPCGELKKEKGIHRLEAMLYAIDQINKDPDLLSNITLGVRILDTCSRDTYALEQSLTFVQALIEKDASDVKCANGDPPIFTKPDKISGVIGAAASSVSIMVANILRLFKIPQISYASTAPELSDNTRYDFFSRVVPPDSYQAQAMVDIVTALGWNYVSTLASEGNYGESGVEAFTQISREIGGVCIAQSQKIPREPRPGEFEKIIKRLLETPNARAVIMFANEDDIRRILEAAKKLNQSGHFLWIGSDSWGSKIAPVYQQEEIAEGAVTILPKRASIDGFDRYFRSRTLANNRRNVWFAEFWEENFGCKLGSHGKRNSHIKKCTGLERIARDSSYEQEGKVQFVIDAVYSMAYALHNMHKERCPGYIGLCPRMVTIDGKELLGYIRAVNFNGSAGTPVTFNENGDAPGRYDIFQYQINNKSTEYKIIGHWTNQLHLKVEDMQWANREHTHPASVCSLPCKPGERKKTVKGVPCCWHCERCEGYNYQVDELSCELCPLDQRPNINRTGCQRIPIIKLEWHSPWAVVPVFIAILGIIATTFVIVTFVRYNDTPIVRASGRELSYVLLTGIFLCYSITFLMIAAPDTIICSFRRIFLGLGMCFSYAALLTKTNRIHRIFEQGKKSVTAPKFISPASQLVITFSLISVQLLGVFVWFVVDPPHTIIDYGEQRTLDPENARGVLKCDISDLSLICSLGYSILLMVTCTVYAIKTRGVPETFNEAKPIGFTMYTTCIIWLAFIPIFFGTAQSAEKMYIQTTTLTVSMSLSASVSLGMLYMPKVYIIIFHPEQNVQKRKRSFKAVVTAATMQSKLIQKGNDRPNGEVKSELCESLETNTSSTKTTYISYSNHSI
The compound `O=C(CN(CCc1ccccc1)S(=O)(=O)c1ccc(Br)cc1)N/N=C/c1ccc2c(c1)OCO2` yielded a z-score of -0.139.
Next, `O=C(NNC(=S)Nc1ccc(Br)cc1)c1ccc(N2CCOCC2)c([N+](=O)[O-])c1`: -1.93; `Cc1onc(-c2c(Cl)cccc2Cl)c1C(=O)NC(C)(C)CO`: -0.202; `COc1ccc(C(=O)NCc2ccc(C)cc2)cc1S(=O)(=O)N1CCCc2ccccc21`: -0.351.
On to `CCSc1nnc(N2C(=O)CC(c3ccsc3)C3=C2CC(C)(C)CC3=O)s1` (stereo not drawn), for which the z-score is -0.747.
The value for `CNC(=S)N1CCN(c2cccc(OC)c2)CC1` was 0.273.
With `Nc1nnc(-c2ccncc2)s1`, the z-score was -0.445.
In the case of `CCc1cc2c(Sc3nc4ccccc4s3)ncnc2s1`, the z-score amounted to 0.273.
Next, `O=C(COc1ccc(S(=O)(=O)NC2CCCCC2)cc1Cl)N1CCN(c2ccccc2)CC1`: 1.16; `CCc1ccc(N2C(=O)C3ON(c4ccccc4)C(c4ccco4)C3C2=O)cc1` (stereo not drawn): 0.783; `FC(F)(F)c1cnc(-n2cc[nH]c2=S)c(Cl)c1`: -0.000676.
Next, `CCOP(=O)(OCC)C(Nc1ccccc1)c1cc(OC)ccc1OC` (stereo not drawn): -0.141; `COc1ccccc1C1C(C#N)=C(N)Oc2c1c(-c1ccccc1)nn2-c1ccccc1` (stereo not drawn): -0.457.
`Cc1ccc(C2=N/C(=C\c3c(C)nn(-c4ccccc4)c3N3CCCC3)C(=O)O2)cc1`: the z-score is -0.297.
`CN1CCN(c2nc3c(c(=O)[nH]c(=O)n3C)n2CCSc2nc3ccccc3s2)CC1` displayed a z-score of -0.222.
In the case of `Cc1ccc(Cc2nnc3n(-c4cccc(C)c4)nc(C(=O)c4ccccc4)n3c2=O)cc1`, the z-score was -0.00526.
The value for `Cc1cc(C)c(-c2csc(NC(=O)c3n[nH]c(=O)c4ccccc34)n2)c(C)c1` was 0.145; that for `CC(C)(C)C(=O)Nc1ccc2c(c1)-c1cc(NC(=O)C(C)(C)C)ccc1C2` was -0.213; that for `CC1CCC(NC(=O)C2c3ccccc3C(=O)N2Cc2cccs2)CC1` (stereo not drawn) was -0.154.
Turning to `COc1cccc(NS(=O)(=O)c2ccc3[nH]cc(C(=O)NCCC(C)C)c(=O)c3c2)c1`, the z-score is 0.0351.
In turn, `CC1(C)CC(=O)C(C(=O)/C=C/NCCc2ccccc2)C(=O)C1` returned a z-score of -0.72.
The value for `CCCCC(=O)N1CCCC(c2nc3c(nnn3Cc3cc(C)ccc3C)c(=O)[nH]2)C1` (stereo not drawn) was active: -3.3; that for `CCNC(=O)CSc1nnc(-c2cccc(S(=O)(=O)N(CC)CC)c2)n1CCc1ccccc1` was -0.141; that for `CCOC(=O)Cc1csc(SCC(=O)Nc2cc(Cl)ccc2Oc2ccccc2)n1` was -0.0682.
The value for `Cc1cccc(NC(=O)CSc2nnc(C)c(=O)n2N)c1C` was -0.154; that for `Cc1cc(NC(=O)c2ccc(N(C)S(=O)(=O)c3ccccc3)cc2)no1` was -0.456; that for `O=C(c1ccco1)N(Cc1cc2ccccc2[nH]c1=O)CC1CCCO1` (stereo not drawn) was -0.102.
Compound `COCCSc1ccccc1C(=O)Nc1ccc(Cl)cn1` came in with a z-score of -0.0354.
In the case of `CC(=O)c1ccc(OC(=O)CCN2c3ccccc3Sc3ccccc32)cc1`, the z-score was -0.68.
`Cc1ccc(NC(=O)Nc2ccc3c(c2)N(C)C(=O)CS3)cc1C` registered a z-score of -1.14.
For the compound `COCc1cc(=O)[nH]c(/N=C(\N)Nc2ccccc2C)n1`, the z-score was -0.075.
`N#Cc1ccsc1NC(=O)CN1CCN(c2ccccn2)CC1`: the z-score was -0.0277.
Next, `c1ccc(-c2nc3ccccc3c3nc4ccccc4n23)cc1`: -0.47; `Cc1ccc2c(c1)CCCN2C(=O)c1cccs1`: -1.65; `C1CCN=C(Nc2nc3c(s2)CCCC3)CC1`: 0.048.
The value for `CC(=O)N(Cc1cc(=O)[nH]c2ccccc12)c1ccc(C)cc1` was 0.534; that for `COc1cc(C(=S)N2CCC(C)CC2)ccc1O` was -0.0658; that for `CCOC(=O)Cn1c(=O)oc2cc(S(=O)(=O)NCCc3ccc(C)cc3)ccc21` was -0.171.
`Cc1nn(C)c(C)c1N1C(=O)c2cccc3c(Br)ccc(c23)C1=O` came in with a z-score of -0.96.
With `O=C(Nc1ccc(N2CCOCC2)c2nonc12)C1CCCC1`, the z-score was 0.00981.
Regarding `CCC(=O)NS(=O)(=O)c1ccc(N=NN2CCCCC2)cc1`, the z-score came to 0.4.
`COc1ccccc1-c1nc(-c2ccccn2)no1` registered a z-score of -0.234.
Take `COc1cc(/C=C/C(=O)O)ccc1OCc1ccccc1C#N`: the z-score came to 0.18.
Next, `COC(=O)c1nn(-c2ccccc2)c(Sc2ccccc2)c1/C=N/O`: -0.23.
On to `Cc1ccc(S(=O)(=O)/N=C(/Nc2c(C)n(C)n(-c3ccccc3)c2=O)c2ccc(Cl)cc2)cc1`, for which the z-score was 0.135.
Next, `Brc1ccc(-c2nc3ccccc3s2)s1`: 0.0471.
Regarding `COc1ccc(CCNC(=O)CC2SC(=NCCc3ccccc3)NC2=O)cc1` (stereo not drawn), the z-score is -0.264.
Next, `CSc1cc(-c2ccc(Cl)cc2)c(C(=O)NN)s1`: 0.0299; `CC(C)(C)c1ccc(OCC(=O)NNC(=O)Cc2cccs2)cc1`: -0.494; `COc1ccc(CCN2C(=O)C3C4CC(C5C(C(N)=O)=NOC45)C3C2=O)cc1OC` (stereo not drawn): -0.0306.
Turning to `COc1ccc(OC)c(N2Cc3cc(C)c(C)cc3C2)c1`, the z-score was 0.286.
Next, `Cc1ccccc1-n1c(SCc2c(C)noc2C)nnc1-c1ccncc1`: 0.161; `O=C(COC(=O)CSc1ccc2ccccc2c1)Nc1ccccc1OC(F)F`: 0.0906; `CCOC(=O)N1CCC(NC(=O)COc2cc(=O)n(C)c3ccccc23)CC1`: -0.602.
For the compound `COc1ccccc1N1C(=O)CC1(C#N)c1ccc(OCc2ccccc2)cc1` (stereo not drawn), the z-score was -0.14.
Next, `CCOC(=O)c1sc(N)c(C(=O)OCC)c1COC(=O)C1CC(=O)N(Cc2ccco2)C1` (stereo not drawn): -1.92.
In the case of `Cc1cc([N+](=O)[O-])ccc1NC(=O)Cc1ccc(F)cc1`, the z-score is -0.108.
The value for `CC1CCN(C(=O)C2(NC(=O)Nc3cccc(F)c3)CCCCC2)CC1` was 0.5; that for `O=C(O)CC1Sc2nc3ccccc3n2C1=O` (stereo not drawn) was -0.113; that for `Cn1c(SCC(=O)NNC(=O)Cc2ccccc2)nnc1-c1ccccc1` was 1.27.
The compound `Cc1c(Br)c(C(F)(F)F)nn1CC(=O)NCc1ccccc1` displayed a z-score of -0.0456.
Compound `Cc1ccc(C2C(C#N)=C(N)N(c3ncn[nH]3)C3=C2C(=O)CC(C)(C)C3)cc1` (stereo not drawn) came in with a z-score of -0.15.
The value for `CCN(CC)C(=O)Cn1c(=O)n(Cc2ccccc2Cl)c2c1c(=O)n(C)c(=O)n2C` was -0.17; that for `COC(=O)C1=CN(C)C=C(C(=O)OC)C1c1ccsc1` was 1.71; that for `COc1ccc(S(=O)(=O)N2CCCC(C(=O)NCCC3=CCCCC3)C2)cc1` (stereo not drawn) was 0.0437.
The value for `O=C(CNC(=O)C(c1ccccc1)c1ccccc1)N/N=C\c1ccc2c(c1)OCO2` was -0.232; that for `CCN(CC)C(=O)CSc1nc(-c2ccc(C)cc2)nc2c1COC(C)(C)C2` was -0.573; that for `Cn1c(O)c(N=NC(=O)c2cc(-c3cccs3)nc3ccccc23)c2ccccc21` was -0.864.
The value for `COc1ccc(C)cc1S(=O)(=O)N(CC(=O)N1CCCC1)c1ccccc1` was 0.141; that for `COc1cccc(/C=C/C(=O)OCC(=O)NCC2CCCO2)c1` (stereo not drawn) was 0.184.
Compound `CCOC(=O)c1[nH]c2ccccc2c1NC(=O)Nc1ccc(OC)cc1` displayed a z-score of -0.231.
`COC(=O)c1ccccc1NC(=O)C1CCN(S(=O)(=O)c2cc(OC)ccc2OC)CC1` yielded a z-score of -0.749.
The value for `COc1cc(OC)cc(C(=O)N2CCN=C2SCc2cccnc2)c1` was -0.736.
The value for `O=C(CCN1CCN(Cc2ccccc2)CC1)Nc1ccccc1Cl` was -0.198.
The value for `CC(=O)N1CCC(=NNC(=O)CSc2cc(C)c(Br)cc2C)CC1` was -0.115; that for `Cc1ccc(-c2nn(Cc3ccccc3)cc2/C=C/C(=O)O)cc1` was -0.493.
`COc1ccc(NC(=O)c2n[nH]c(=O)c3ccccc23)cc1S(=O)(=O)N1CCCCC1` had a z-score of -0.493.
`CC(NC(=O)c1cccnc1)c1ccc2c(c1)OCO2` (stereo not drawn) yielded a z-score of 0.17.
The value for `CCOC(=O)C1=C(CSc2nnnn2C)N(C)C(=O)NC1c1ccccc1` (stereo not drawn) was 0.291; that for `O=C(Nc1ccc(NC(=O)C2CC2)nc1)c1cccc(F)c1` was -0.42; that for `COc1ccc(-c2noc(CSc3nc4ccccc4c(=O)n3-c3ccccc3)n2)cc1OC` was 0.0543.
The compound `Cc1csc(SCC(=O)N2CCCC2)n1` displayed a z-score of -0.365.
Compound `COc1ccc(N(C(=O)COc2ccc(C)cc2)S(=O)(=O)c2ccc(C)cc2)cc1` returned a z-score of -0.00211.
Next, `Cc1occc1C(=O)N1CCN(S(C)(=O)=O)CC1`: 0.0321; `COc1ccc(-n2c(C)cc(/C=C3\C(=O)NN(c4ccccc4)C3=O)c2C)cc1`: -0.0152.
`O=C(O)c1ccc(COc2ccccc2C=C2C(=O)c3ccccc3C2=O)cc1`: the z-score is -0.35.
Regarding `CC(=O)N(Cc1ccccc1)c1ncc2c(n1)c(=O)c(C#N)c1ccccn12`, the z-score is -0.93.
The value for `COC(=O)Nc1ccccc1C(=O)N1CCCCC1` was -0.347.
Take `O=S(=O)(NC1CCCCC1Sc1ncccn1)c1ccc(Cl)cc1` (stereo not drawn): the z-score amounted to 0.2.
Next, `COc1ccccc1-n1cc(C(=O)NCC(=O)N2CCN(c3ccccc3)CC2)c2ccccc2c1=O`: -0.569; `CCOC(=O)C1=C2N(C)c3ccccc3N2CCC1=O`: 1.09; `Cc1[nH]c2ccccc2c1SCCNC(=O)c1ccc(Br)o1`: -1.39.
Next, `O=C(Nc1c(F)cc(F)cc1Br)C1CCCO1` (stereo not drawn): 0.171; `CCc1ccc(NC(=O)N(CCCN2CCOCC2)C(C)c2cc3cccc(OC)c3o2)cc1` (stereo not drawn): -0.158.
On to `O=S1(=O)CC(N2CCOCC2)c2ccccc21` (stereo not drawn), for which the z-score was -0.0158.
Next, `CS(=O)(=O)N(CC(=O)NCc1ccco1)c1cc(C(F)(F)F)ccc1Cl`: 0.181; `COc1ccc([N+](=O)[O-])cc1NC(=O)C(C)Sc1ccc(C)cc1` (stereo not drawn): -0.545; `CC(C)Oc1c(Cl)cc(CNC(C)(C)CO)cc1Cl`: 0.84.
Turning to `Cc1c(N=Cc2cccnc2)c(=O)n(-c2ccccc2)n1C`, the z-score was found to be 0.32.
In turn, `Cc1cccc2cc(COC(=O)C3CCCO3)c(=O)[nH]c12` (stereo not drawn) came in with a z-score of 0.0109.
As to `Cc1cc(C)c2cc3c(N)c(C(=O)N4CCc5ccccc5C4)sc3nc2c1`, the z-score was -0.12.
Next, `Cc1ccccc1NC(=O)CNc1ccccc1C(=O)NCc1ccco1`: -0.253.
For `Cc1cc2c(N=NC(=O)C3CC3c3ccccc3)c(O)[nH]c2cc1Br` (stereo not drawn), the z-score is -0.449.
The value for `Cc1nc(N)sc1C(=O)Nc1ccccc1` was 0.00498; that for `CCCC1C(c2ccccc2)C(C#N)(C#N)C2(C#N)CC1(N)NC2=O` (stereo not drawn) was -0.0727; that for `O=C1N=C(N2CCN(c3ccccc3)CC2)S/C1=C/c1cccs1` was -0.596.
Next, `Cc1sc2nc(SCC(=O)c3cccs3)n(Cc3ccco3)c(=O)c2c1C`: -1.14.
`COc1ccc(C(NC(=O)c2ccc(-c3ccccc3)cc2)c2ccccc2)cc1` (stereo not drawn) returned a z-score of -0.153.
